The values below come from publication PMC10816717.

The chains behind the UniProt entries cited, without tags or fusion partners. Residues count along the entry.
UniProt Q14416, residues 19-872: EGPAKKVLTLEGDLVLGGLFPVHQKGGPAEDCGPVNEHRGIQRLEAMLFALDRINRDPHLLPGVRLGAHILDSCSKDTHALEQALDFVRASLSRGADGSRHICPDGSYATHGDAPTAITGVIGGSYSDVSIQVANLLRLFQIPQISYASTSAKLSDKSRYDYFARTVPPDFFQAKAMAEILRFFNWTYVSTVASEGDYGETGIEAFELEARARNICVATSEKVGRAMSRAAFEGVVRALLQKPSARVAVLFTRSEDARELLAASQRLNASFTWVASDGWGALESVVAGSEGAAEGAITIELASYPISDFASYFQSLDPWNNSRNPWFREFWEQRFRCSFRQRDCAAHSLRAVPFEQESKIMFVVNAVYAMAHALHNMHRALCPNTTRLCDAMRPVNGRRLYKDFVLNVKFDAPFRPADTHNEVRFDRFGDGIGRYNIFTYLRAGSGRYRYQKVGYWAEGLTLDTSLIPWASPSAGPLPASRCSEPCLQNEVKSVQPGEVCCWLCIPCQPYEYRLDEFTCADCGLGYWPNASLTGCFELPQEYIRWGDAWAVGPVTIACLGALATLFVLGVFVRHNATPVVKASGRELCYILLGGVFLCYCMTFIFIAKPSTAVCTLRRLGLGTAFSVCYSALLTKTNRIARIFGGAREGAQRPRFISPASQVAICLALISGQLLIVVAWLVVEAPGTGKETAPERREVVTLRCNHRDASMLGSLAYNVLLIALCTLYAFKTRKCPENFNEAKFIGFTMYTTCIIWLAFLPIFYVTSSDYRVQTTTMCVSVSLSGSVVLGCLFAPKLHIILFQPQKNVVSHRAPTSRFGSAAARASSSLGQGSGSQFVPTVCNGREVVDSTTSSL
UniProt Q14832, residues 23-879: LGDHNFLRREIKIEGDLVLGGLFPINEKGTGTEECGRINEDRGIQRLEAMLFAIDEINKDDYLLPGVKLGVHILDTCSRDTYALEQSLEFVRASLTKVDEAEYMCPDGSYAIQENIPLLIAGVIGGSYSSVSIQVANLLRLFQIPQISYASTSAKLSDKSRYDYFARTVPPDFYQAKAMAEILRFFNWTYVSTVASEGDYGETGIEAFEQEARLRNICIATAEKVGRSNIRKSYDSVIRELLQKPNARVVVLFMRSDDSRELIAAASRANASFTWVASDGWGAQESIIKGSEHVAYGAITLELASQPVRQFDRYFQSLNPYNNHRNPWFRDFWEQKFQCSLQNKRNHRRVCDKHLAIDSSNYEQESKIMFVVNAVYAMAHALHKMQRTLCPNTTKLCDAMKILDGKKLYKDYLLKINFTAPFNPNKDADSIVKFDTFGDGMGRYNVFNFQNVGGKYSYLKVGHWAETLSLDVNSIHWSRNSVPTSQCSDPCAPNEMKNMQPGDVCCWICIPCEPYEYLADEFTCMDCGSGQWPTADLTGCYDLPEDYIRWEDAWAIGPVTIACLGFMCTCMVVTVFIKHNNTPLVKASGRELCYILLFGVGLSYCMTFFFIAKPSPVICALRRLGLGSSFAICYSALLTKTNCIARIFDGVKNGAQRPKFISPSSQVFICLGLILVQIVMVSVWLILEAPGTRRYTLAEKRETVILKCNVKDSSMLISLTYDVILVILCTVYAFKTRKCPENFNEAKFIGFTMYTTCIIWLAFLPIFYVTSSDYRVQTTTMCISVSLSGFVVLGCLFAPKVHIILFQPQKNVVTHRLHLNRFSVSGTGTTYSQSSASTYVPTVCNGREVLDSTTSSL
UniProt Q14BI2, residues 19-872: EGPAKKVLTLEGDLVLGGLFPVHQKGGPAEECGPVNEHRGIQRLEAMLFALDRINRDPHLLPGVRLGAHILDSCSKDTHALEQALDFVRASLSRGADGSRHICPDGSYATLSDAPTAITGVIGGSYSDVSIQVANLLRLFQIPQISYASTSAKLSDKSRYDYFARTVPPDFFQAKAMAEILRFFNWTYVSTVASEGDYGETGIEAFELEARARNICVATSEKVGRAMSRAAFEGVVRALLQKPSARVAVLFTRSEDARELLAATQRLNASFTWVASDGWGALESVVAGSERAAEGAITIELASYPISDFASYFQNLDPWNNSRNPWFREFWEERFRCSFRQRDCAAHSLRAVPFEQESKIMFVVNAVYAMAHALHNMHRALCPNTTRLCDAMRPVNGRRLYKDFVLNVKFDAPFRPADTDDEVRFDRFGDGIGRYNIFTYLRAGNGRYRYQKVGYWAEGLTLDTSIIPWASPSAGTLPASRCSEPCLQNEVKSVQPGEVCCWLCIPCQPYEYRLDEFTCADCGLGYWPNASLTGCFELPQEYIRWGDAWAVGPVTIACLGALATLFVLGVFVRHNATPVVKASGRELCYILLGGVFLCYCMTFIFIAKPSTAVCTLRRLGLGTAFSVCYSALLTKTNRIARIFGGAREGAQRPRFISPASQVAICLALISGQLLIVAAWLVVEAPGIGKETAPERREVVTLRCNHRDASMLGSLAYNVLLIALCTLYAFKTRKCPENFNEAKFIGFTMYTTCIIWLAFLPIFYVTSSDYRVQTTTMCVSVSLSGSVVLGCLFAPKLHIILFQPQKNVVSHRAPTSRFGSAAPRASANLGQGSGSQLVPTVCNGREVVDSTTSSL
UniProt Q16620, residues 32-822: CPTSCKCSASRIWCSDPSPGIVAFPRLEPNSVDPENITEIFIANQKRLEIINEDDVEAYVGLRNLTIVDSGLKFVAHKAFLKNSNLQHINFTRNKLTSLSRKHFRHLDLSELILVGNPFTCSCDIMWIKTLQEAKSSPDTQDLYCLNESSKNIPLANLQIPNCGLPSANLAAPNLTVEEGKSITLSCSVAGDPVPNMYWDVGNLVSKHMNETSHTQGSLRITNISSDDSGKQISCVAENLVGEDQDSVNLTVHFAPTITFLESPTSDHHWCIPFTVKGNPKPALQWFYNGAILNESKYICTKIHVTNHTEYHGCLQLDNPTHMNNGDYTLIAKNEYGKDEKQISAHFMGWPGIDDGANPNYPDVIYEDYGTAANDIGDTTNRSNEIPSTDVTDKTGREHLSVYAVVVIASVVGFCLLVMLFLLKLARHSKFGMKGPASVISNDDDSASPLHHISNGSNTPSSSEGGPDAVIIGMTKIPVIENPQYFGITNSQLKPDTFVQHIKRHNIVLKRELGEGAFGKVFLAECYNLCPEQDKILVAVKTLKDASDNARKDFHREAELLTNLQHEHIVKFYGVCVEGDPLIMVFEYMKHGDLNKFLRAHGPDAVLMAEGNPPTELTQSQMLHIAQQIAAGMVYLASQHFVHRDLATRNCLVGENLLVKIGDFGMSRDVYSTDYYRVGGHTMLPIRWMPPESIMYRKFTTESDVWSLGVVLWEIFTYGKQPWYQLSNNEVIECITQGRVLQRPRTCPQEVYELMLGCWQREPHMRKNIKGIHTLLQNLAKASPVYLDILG
UniProt P41594, residues 21-1212: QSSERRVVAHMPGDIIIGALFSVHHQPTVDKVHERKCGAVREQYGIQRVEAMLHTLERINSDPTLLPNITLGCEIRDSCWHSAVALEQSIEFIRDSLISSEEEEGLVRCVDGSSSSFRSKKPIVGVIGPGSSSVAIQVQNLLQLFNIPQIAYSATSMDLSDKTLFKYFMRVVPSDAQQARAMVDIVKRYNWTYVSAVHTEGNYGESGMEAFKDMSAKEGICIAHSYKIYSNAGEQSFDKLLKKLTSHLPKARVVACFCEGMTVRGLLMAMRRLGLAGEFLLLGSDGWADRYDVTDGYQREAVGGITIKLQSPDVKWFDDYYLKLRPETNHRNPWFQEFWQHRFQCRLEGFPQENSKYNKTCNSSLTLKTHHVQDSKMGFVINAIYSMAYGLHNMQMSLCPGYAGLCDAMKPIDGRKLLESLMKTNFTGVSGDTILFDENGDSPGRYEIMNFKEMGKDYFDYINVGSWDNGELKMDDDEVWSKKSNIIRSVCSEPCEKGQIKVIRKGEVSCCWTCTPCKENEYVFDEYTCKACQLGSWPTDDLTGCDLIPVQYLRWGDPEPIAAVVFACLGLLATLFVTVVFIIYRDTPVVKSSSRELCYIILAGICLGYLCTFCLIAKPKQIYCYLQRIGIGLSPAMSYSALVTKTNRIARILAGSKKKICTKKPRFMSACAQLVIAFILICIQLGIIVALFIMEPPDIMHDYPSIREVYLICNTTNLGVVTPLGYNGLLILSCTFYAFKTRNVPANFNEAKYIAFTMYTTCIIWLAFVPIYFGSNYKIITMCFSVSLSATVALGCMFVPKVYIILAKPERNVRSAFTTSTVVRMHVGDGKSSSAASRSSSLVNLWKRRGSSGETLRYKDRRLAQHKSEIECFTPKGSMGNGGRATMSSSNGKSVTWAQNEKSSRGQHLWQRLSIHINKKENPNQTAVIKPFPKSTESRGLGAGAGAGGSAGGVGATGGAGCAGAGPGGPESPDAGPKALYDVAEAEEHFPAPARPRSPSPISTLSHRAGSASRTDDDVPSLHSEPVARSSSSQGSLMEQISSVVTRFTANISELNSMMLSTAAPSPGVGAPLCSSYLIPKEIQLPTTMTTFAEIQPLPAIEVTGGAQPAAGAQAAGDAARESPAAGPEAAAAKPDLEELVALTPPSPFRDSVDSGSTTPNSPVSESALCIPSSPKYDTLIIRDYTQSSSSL
UniProt P15209, residues 32-821: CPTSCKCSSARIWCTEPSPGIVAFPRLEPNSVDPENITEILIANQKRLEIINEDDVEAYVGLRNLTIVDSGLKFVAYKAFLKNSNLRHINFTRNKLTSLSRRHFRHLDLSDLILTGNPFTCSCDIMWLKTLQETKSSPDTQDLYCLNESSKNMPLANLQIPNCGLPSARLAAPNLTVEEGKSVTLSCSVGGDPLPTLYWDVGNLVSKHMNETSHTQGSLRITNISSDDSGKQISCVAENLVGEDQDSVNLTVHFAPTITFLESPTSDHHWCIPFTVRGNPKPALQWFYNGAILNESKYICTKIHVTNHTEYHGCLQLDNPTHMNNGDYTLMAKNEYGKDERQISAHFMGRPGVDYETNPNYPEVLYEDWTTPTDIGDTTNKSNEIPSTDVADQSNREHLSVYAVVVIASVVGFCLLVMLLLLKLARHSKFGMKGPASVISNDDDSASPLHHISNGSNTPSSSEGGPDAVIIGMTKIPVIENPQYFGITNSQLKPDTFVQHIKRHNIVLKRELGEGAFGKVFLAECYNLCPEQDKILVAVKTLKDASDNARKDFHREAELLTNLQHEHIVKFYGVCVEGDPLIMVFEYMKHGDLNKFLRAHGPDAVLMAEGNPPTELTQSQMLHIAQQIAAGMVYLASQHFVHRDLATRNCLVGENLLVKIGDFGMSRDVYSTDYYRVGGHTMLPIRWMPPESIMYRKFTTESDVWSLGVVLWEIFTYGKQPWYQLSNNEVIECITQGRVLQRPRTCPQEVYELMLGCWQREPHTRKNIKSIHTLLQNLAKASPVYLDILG

The target of assay [1] is human Flag-tagged mGlu2 (human) (UniProt Q14416). Briefly: co-IP; HEK-293 cells transfected with human Flag-mGlu2 or Flag-mGlu3 with or without human TrkB; 1.5 mg solubilized proteins, anti-Flag M2 affinity gel beads, 4 hours at 4°C, washes with 500 mM NaCl; blot with anti-TrkB; cells also treated 15 min with vehicle, 7,8-DHF (1 μM), LY379268 (1 μM) or LY341495.
Assay [2] addresses human Flag-tagged mGlu3 (human) (UniProt Q14832). The assay is described as above.
The target of assay [3] is human Flag-tagged mGlu2 (human) (UniProt Q14416). The assay is described as follows: proximity ligation; HEK-293 cells expressing human Flag-mGlu2 or Flag-mGlu3 with or without human TrkB; anti-TrkB and anti-Flag antibodies overnight at 4°C.
Assay [4] addresses human Flag-tagged mGlu3 (human) (UniProt Q14832). Described as above.
A further assay has as its target mGlu2-Venus (human) (UniProt Q14416). The assay is described as follows: FRET or BRET; BRET saturation in HEK-293 cells: constant amount of Rluc donor construct (20 ng per 100,000 cells), increasing amounts of Venus acceptor construct (0 to 40 ng per 100,000 cells); coelenterazine H 5 μM; EAAC1 cotransfected.
The next assay concerns the target mGlu3-Venus (human) (UniProt Q14832). The assay is described as above.
Assay [5] addresses Metabotropic glutamate receptor 2 (mGlu2), endogenous mouse (mouse (endogenous in prefrontal cortex, brain slices and cortical neurons)) (UniProt Q14BI2). Briefly: co-IP; co-immunoprecipitation followed by Western blotting from PFC of wild-type and mGlu2-/- mice (fig. S1B).
Assay [6] has the same target. The assay is described as follows: proximity ligation; mouse brain slices (OB, PFC, DG, CB) of wild-type or mGlu2-/- mice; anti-TrkB antibody, anti-6-His antibody and anti-mGlu2 nanobody (200 nM), 48 hours at 4°C; mice also injected with vehicle, LY379268, 7,8-DHF or LY341495.
Assay [7] shares this target. The assay is described as follows: co-IP; primary mouse cortical neurons, 0.5 mg solubilized neuronal proteins, mGlu2 nanobody (2 μg); washes with 500 mM NaCl; neurons treated with LY379268 or 7,8-DHF (fig. S3).

No constants are given. Whether binding was seen depends on the method and setting. In cells and extracts the contact can be indirect. Some entries that bind do so weakly or less than the wild type.

As to “human TrkB (from UniProt Q16620 32-822) (receptor)”, the binding entry was “binds” in assay [1], “no binding” in [2], “binds” in assay [3] and “no binding” in assay [4].

For the substance “mGlu5-Rluc (from UniProt P41594 21-1212) (receptor)”, the binding entry in the assay with mGlu2-Venus (human) is recorded as “no binding”.

As for “TrkB-Rluc (from UniProt Q16620 32-822) (receptor)”, the values for the binding result with mGlu3-Venus (human) and with mGlu2-Venus (human) were “no binding” and “binds”, respectively.

In the case of “BDNF/NT-3 growth factor receptor TrkB, endogenous mouse (from UniProt P15209 32-821)”, the binding result in [5], in [6] and in assay [7] was “binds” throughout.
